Some of the results follow.
biological target: T1, OsWOX13 (Oryza sativa, UniProt Q5QMM3 1-267); assay: protein-binding microarray (RPBM); PBS, 2% BSA, 51.3 ng/ul salmon testes DNA, 50 uM zinc acetate, 200 nM TF, 25 C, 1 h; high values mean tight binding; details: protein: recombinant; tags: N-terminal polyhistidine and DsRed monomer fusion (pET32a); label: CyDye5-dUTP incorporated in the synthesized complementary strand; 3' TTTTT single-stranded linker to array surface; dsDNA, one strand shown
T1 sequence: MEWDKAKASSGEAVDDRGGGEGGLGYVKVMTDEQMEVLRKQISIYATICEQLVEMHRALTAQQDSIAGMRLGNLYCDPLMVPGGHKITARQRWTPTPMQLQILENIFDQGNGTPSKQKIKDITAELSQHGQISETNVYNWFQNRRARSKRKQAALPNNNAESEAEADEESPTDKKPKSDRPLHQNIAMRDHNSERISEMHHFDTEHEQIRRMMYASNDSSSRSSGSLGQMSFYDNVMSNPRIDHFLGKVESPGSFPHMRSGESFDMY
Procedure, shortened: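 Binding signal here means per-feature fluorescence intensity in arbitrary units. The values were read on an Axon 4000B scanner after a custom Agilent array, double-stranded by primer extension with Cy5-dUTP, was incubated with 200 nM protein at 25 °C for 1 h in PBS with 2% BSA, salmon testes DNA and 50 µM zinc acetate, then washed. The proteins were transcription factors with an N-terminal polyhistidine tag and DsRed, expressed in E. coli BL21-CodonPlus and purified on Ni–NTA.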

Sequence | binding signal
CTTTTGATCATTTCCCACTCGTTTATTGTATTTGGAGTAACGGAGTCACCTAGTGCAG | 3480 fluorescence intensity (a.u.)
CTCATGATTGCAGCTTGAATTGCAACTTTTCTAGCCCATACGGAGTCACCTAGTGCAG | 22800 fluorescence intensity (a.u.)
CTAATTAATCGAAGTGATCGCGTAAAGTGGCCGACAGGATCGGAGTCACCTAGTGCAG | 14200 fluorescence intensity (a.u.)
CATTAGATTTCGACTAACAATTTAATTCAGCACACAGAGTCGGAGTCACCTAGTGCAG | 4310 fluorescence intensity (a.u.)
AGCCTAATTAGTCTATGATTAGCCATAAGTGCTACAGTAACGGAGTCACCTAGTGCAG | 37500 fluorescence intensity (a.u.)
AGATAACATCTTTAATTAATTTGTTGTTAATTAACAATATCGGAGTCACCTAGTGCAG | 36900 fluorescence intensity (a.u.)
ATATGATAGGATATGACATAATCTACTATACAAATCTAGACGGAGTCACCTAGTGCAG | 7470 fluorescence intensity (a.u.)
TGAGATTGCGAGATGATAGATGCAGTAGTGCTGACGTTCTCGGAGTCACCTAGTGCAG | 22900 fluorescence intensity (a.u.)
ATGACAGTATGACAGCTCGTCAATCAATGGTAATCACAGCCGGAGTCACCTAGTGCAG | 25400 fluorescence intensity (a.u.)
TTTACTCATGATTACGCTAATTATTCCACTCAATTCTCACCGGAGTCACCTAGTGCAG | 26100 fluorescence intensity (a.u.)
ACCATTAATAGATTGAGAGCGAATGAATTGGTGCCACGTGCGGAGTCACCTAGTGCAG | 55000 fluorescence intensity (a.u.)
CGTCTGTTAGATACTTTGATTAAGTTAGCACCTGTTCTACCGGAGTCACCTAGTGCAG | 4080 fluorescence intensity (a.u.)
AAATTAAGTAATCATTAATTCTTTTCTTATCATTTGATTCCGGAGTCACCTAGTGCAG | 4980 fluorescence intensity (a.u.)
CTATAAACATGATTTAAATTTGATAACTAAGAACACACTTCGGAGTCACCTAGTGCAG | 19200 fluorescence intensity (a.u.)
CTAAATATAATTGCTACTATGATATCGATAGATACGTTATCGGAGTCACCTAGTGCAG | 15700 fluorescence intensity (a.u.)
TCTAATTAGCAAACGCATACACTTTTCCCTTTGCAAATTGCGGAGTCACCTAGTGCAG | 35400 fluorescence intensity (a.u.)
GTTGAAGGATCTGGATGATTAGACGAGCGATGGATCAGGTCGGAGTCACCTAGTGCAG | 3720 fluorescence intensity (a.u.)
TGTGTGACAGCAGACAGCTAATTATCAGTACACGTATATGCGGAGTCACCTAGTGCAG | 15400 fluorescence intensity (a.u.)
ACAACAATCATCAGTATAAATAATTCAGTACAACTGAAATCGGAGTCACCTAGTGCAG | 7340 fluorescence intensity (a.u.)
GAAATAATTGATTGAATCCTATTCTATCCTCTAAAATTCCCGGAGTCACCTAGTGCAG | 30900 fluorescence intensity (a.u.)
ATCACATGACTGACGATACTGCGAAAATGACACAAAACAACGGAGTCACCTAGTGCAG | 3260 fluorescence intensity (a.u.)
AGATGGGTGATGACGTGGACAGATTGACGTGTGGGGCCCACGGAGTCACCTAGTGCAG | 10700 fluorescence intensity (a.u.)
ATACAATCAATTCTTGACTGAGAATAGCAGTAGAACTTTTCGGAGTCACCTAGTGCAG | 20300 fluorescence intensity (a.u.)
TGATGATTTTGTATATTTATGTTCTTCCATCCATACCTTACGGAGTCACCTAGTGCAG | 6980 fluorescence intensity (a.u.)
CATCGATTAATAATCTGGTTTGTTAATTCCCCTGGACTTACGGAGTCACCTAGTGCAG | 4760 fluorescence intensity (a.u.)
TTGAAATTGTCAACACTACATTCTGAAATCGTCGTACACCCGGAGTCACCTAGTGCAG | 3540 fluorescence intensity (a.u.)
ATAATTATTATTTATTTTCTTGTGACTTAGTTTATCACTACGGAGTCACCTAGTGCAG | 10800 fluorescence intensity (a.u.)

Sequence | binding signal
ATTAATGTTTAATGTCATTTATATGAATCAAAAGAGAGAGCGGAGTCACCTAGTGCAG | 6260 fluorescence intensity (a.u.)
CATCAAATAACTTTGATTTGATCTAACCTCTTAAAGACGTCGGAGTCACCTAGTGCAG | 15200 fluorescence intensity (a.u.)
CCAAATTACAACAAATATAATTTTACTTAATCCAAAGTAACGGAGTCACCTAGTGCAG | 8310 fluorescence intensity (a.u.)
GTTATTAATTGATTCTCTCCTGATTTTATTCTATAAATACCGGAGTCACCTAGTGCAG | 18700 fluorescence intensity (a.u.)
GGCCTGATAATTAGTTAAATTTTCCGGCCCATACATAGGACGGAGTCACCTAGTGCAG | 15600 fluorescence intensity (a.u.)
TTCCAATTTTGATGTGAACTAAACACACCCTATGAATGGACGGAGTCACCTAGTGCAG | 3560 fluorescence intensity (a.u.)
ATGCCATCCAATCAAGCCACGACGATCCACAGCCATAGTGCGGAGTCACCTAGTGCAG | 11500 fluorescence intensity (a.u.)
CCGGGGATTGATTTGCCGAGTGTATTATTGATCGTATGATCGGAGTCACCTAGTGCAG | 53500 fluorescence intensity (a.u.)
GTCTGATTTGGAGTCTGTTGGAGATGCTCTAACAATCTAACGGAGTCACCTAGTGCAG | 13100 fluorescence intensity (a.u.)
TTCCCCTCAATTGATTTCACCGGATAAGGAAAGGCGCGGCCGGAGTCACCTAGTGCAG | 8510 fluorescence intensity (a.u.)
ATTGTAATTAACTAATCATCATGCGTGTGCATTGTATTTACGGAGTCACCTAGTGCAG | 22600 fluorescence intensity (a.u.)
GTATGGAAATTTAAAATGTGACGGATGGAGTTACAGGATCCGGAGTCACCTAGTGCAG | 3980 fluorescence intensity (a.u.)
CATTTCAATTTGGACCATCATATTTCATCCATCTCCAAGTCGGAGTCACCTAGTGCAG | 3410 fluorescence intensity (a.u.)
GAACTTCTAATTATCAATATCAGTTCAAATGAAAAGGAATCGGAGTCACCTAGTGCAG | 3840 fluorescence intensity (a.u.)
TTGATTTGTTGAAATGACTGATACTCCTTTTCTATTGTCTCGGAGTCACCTAGTGCAG | 41100 fluorescence intensity (a.u.)
ACCCTAATTACTATAGCTTTGTCTTCTTCTTCTTCTTCTTCGGAGTCACCTAGTGCAG | 20200 fluorescence intensity (a.u.)
CTGGATGATAAATTGAGGGATCTAAAGTGAACTTATTCGACGGAGTCACCTAGTGCAG | 15400 fluorescence intensity (a.u.)
CACATTGCTTATGATTATCTTCTAGATGAATCTGCCAACTCGGAGTCACCTAGTGCAG | 5020 fluorescence intensity (a.u.)
CATAAATGTCAAATTAATACTTTAAATGCATTATGAATTTCGGAGTCACCTAGTGCAG | 17600 fluorescence intensity (a.u.)
CTCATGATGGATCCACCTTAATCAGATCGTTGCTCATGGCCGGAGTCACCTAGTGCAG | 4570 fluorescence intensity (a.u.)
TTCTTGACAGGATGAAGGAATTGAGATGCCCTCCGGATAGCGGAGTCACCTAGTGCAG | 26800 fluorescence intensity (a.u.)
GCCTAATTATTACATAGAGACCAATCAATAAGCTATTAGCCGGAGTCACCTAGTGCAG | 36900 fluorescence intensity (a.u.)
ATGCCCATCAACCAATCATAGATTGATATCCATCCATAAACGGAGTCACCTAGTGCAG | 33600 fluorescence intensity (a.u.)
TAGCCAATTCATATAATTAGCTACCTATAAACATATACTACGGAGTCACCTAGTGCAG | 3520 fluorescence intensity (a.u.)
AGGTTTTAATTTAATTCAACTGCCACCAACACGCACCAGTCGGAGTCACCTAGTGCAG | 10100 fluorescence intensity (a.u.)
CTGATGATAATCGTATTTCTGATGACCCATGATTCCGCGGCGGAGTCACCTAGTGCAG | 7090 fluorescence intensity (a.u.)
CAGTATATAAATAATTTGAATTAGATGAGATATATCCTAGCGGAGTCACCTAGTGCAG | 8160 fluorescence intensity (a.u.)
